Results: the supplement of paper PMC11417369
± gives the standard deviation of the averaged measurements. This is one part of the list.

These sequences were tested on PfAP2-EXP AP2 domain (GST-tagged) (assay: gcPBM binding intensity (ln(normalized median fluorescence intensity)); higher = stronger DNA binding).
Method in brief: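 Each value is the highest Masliner-normalised natural-log median intensity across replicate spots of either orientation of a probe. The probes were primer-extended double-stranded 36-bp intergenic genomic sequences on an Agilent 4 × 180k array, alongside negative controls, exposed for 1 h to GST-tagged P. falciparum DNA-binding domains expressed in E. coli. Bound protein was picked up with Alexa488 anti-GST antibody and scanned at 488 nm.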

Sequence | gcPBM binding intensity (ln)
TGTAATAAATAGTACACACACACATATTTATATATC [CACACA_site6770] | 8.84 ± 0.44
ATATGGGTAATGAATTGTACTCTTTCTTGTTGTTCT [XGTACX_site4487] | 8.64 ± 0.52
GTATAATTTTCGTATTCACACAAGAATATACTACAT [CACACA_site4877] | 8.74 ± 0.43
TATAATATTATATATAAACACACATACACATGTAAA [CACACA_site8631] | 8.79 ± 0.73
GTATATTTATAGCCTTTATTATATTTAATATTATTA [TGCATGCA_negctrl_site26] | 8.53 ± 0.39
AGAAAAGTTTAATACAGTACATAAACAAAGTATAGG [XGTACX_site2386] | 8.49 ± 0.95
GTTATATTTTTTTATACACACTGGAATATATAAATA [CACACA_site4282] | 8.56 ± 0.37
ACCCAATTTTAAAATGAACACACATGTTTTTCTTAC [CACACA_site8246] | 8.82 ± 0.25
TATTTATTGTGATACTACTATTATTTTATGATTAAA [CACACA_negctrl_site284] | 8.44 ± 0.42
ATAATTATATATTTATGTACGCATAAATATTTATAT [XGTACX_site5765] | 8.49 ± 0.3
AACTATATCATTTATTTTATTTTTTAAATACATTTA [CACACA_negctrl_site183] | 8.42 ± 0.35
TTGTTTTATTATTCGATGCACTACAGAAATATATTC | 8.89 ± 0.34
TATACAACTTTATGAAGTACAAAAAGTTCTATATAT [XGTACX_site3866] | 8.3 ± 0.47
TTATATTATTTTTAATGTACTTTTTATGAATACAAA [XGTACX_site689] | 8.48 ± 0.21
TATATATAACTTTATTGTACAAAATATTATGTATTC [XGTACX_site981] | 8.47 ± 0.43
TTATAATTTTAATGTGCACACAATTAAAATATTATA [CACACA_site5172] | 8.57 ± 0.18
TGTAAGAAATTGAGCGCACACATACATCTGTGGGAT [CACACA_site4945] | 8.87 ± 0.48
TATAAATAAATATACACACACACATATAAATATGTA [CACACA_site6504] | 8.36 ± 0.38
TTTTGTTTATGTGTGCATTATATTATATTTTTTATT [TGCATGCA_negctrl_site146] | 8.96 ± 0.28
TATTGACAAAAAAAAAAAAGGTAAAAAAGAAAGAAA [GTGCAC_negctrl_site418] | 8.66 ± 0.56
AATAAATATAGGTACACACACAAATATGTACATATC [CACACA_site6976] | 8.79 ± 0.34
TAGTTGCACATGTATACACACAAAAAATATTTTATG [CACACA_site475] | 8.94 ± 0.26
AAAGAAAGGAATACGACACACAAAAAAAAAATATAT [CACACA_site1934] | 8.9 ± 0.54
AAGAAACCATAATATGCATGCACATATTAATAAATA [TGCATGCA_site693] | 9.68 ± 0.26
